Measurements: the supplement of paper PMC12645437, “Orthogonal IMiD-Degron Pairs Induce Selective Protein Degradation in Cells” (ACS Chemical Biology, 2025)
Some of the results follow.

These sequences were tested against no compound (DMSO) (assay: log2 fold change of degron read counts, EGFP-low vs EGFP+ sorted cells; higher = lower degron-EGFP level without compound (poor expression or instability)). Settings: compound: DMSO control; 18 h.
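Also: jurkat cells carrying a lentiviral library of mutant zinc finger degrons fused to EGFP plus mCherry, mCherry+ cells FACS sorted, degron abundance counted by next-generation sequencing.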

Q: How did the “log2 fold change of degron read counts” value turn out when FKCSVCGHYFTQKGNLLRHIKL was run?
A: 0.274

Q: Which “log2 fold change of degron read counts” value does the source give for LLCEICGFDCTQKGNLLRHIKL here?
A: -1.06

Q: With FSCEICGALFTQKGNLLRHIKL as the sequence, how does the “log2 fold change of degron read counts” value read?
A: -1.36

Q: For FWCDQCGALFTQKGNLLRHIKL, which “log2 fold change of degron read counts” value is on record?
A: 0.512

Q: Which “log2 fold change of degron read counts” value does the source give for FSCPVCGALFTQKGNLLRHIKL here?
A: -0.291

Q: How did the “log2 fold change of degron read counts” value turn out when FFCNQCGHRFTQKGNLLRHIKL was run?
A: 0.42

Q: FMCPICGRMFTQKGNLLRHIKL was tested. Which “log2 fold change of degron read counts” value did it give?
A: 0.582

Q: FVCNICGATFTQKGNLLRHIKL was tested. Which “log2 fold change of degron read counts” value did it give?
A: -0.921

Q: Which “log2 fold change of degron read counts” value does the source give for LICEICGFACTQKGNLLRHIKL here?
A: -0.382

Q: How did the “log2 fold change of degron read counts” value turn out when FSCNQCGHMFTQKGNLLRHIKL was run?
A: 0.0698

Q: For FVCPICGHAFTQKGNLLRHIKL, which “log2 fold change of degron read counts” value is on record?
A: -0.743

Q: How did the “log2 fold change of degron read counts” value turn out when FTCPICGRIFTQKGNLLRHIKL was run?
A: -0.0841

Q: Which “log2 fold change of degron read counts” value does the source give for FDCDVCGAVFTQKGNLLRHIKL here?
A: -2.2

Q: For FDCPICGRMFTQKGNLLRHIKL, which “log2 fold change of degron read counts” value is on record?
A: 0.496

Q: With FCCDVCGAMFTQKGNLLRHIKL as the sequence, how does the “log2 fold change of degron read counts” value read?
A: -2.13

Q: Which “log2 fold change of degron read counts” value does the source give for FECSVCGHIFTQKGNLLRHIKL here?
A: -0.947

Q: For FGCSVCGHQFTQKGNLLRHIKL, which “log2 fold change of degron read counts” value is on record?
A: -0.0693

Q: Which “log2 fold change of degron read counts” value does the source give for FQCSVCGHRFTQKGNLLRHIKL here?
A: -0.238

Q: FCCPICGAMFTQKGNLLRHIKL was tested. Which “log2 fold change of degron read counts” value did it give?
A: 0.106

Q: FFCDQCGAFFTQKGNLLRHIKL was tested. Which “log2 fold change of degron read counts” value did it give?
A: -0.285

Q: For FQCEICGHMFTQKGNLLRHIKL, which “log2 fold change of degron read counts” value is on record?
A: -1.06

Q: Which “log2 fold change of degron read counts” value does the source give for FFCDVCGAMFTQKGNLLRHIKL here?
A: -1.63

Q: For FRCEICGHEFTQKGNLLRHIKL, which “log2 fold change of degron read counts” value is on record?
A: -2.04

Q: Which “log2 fold change of degron read counts” value does the source give for FDCNQCGAKFTQKGNLLRHIKL here?
A: -1.06

Q: How did the “log2 fold change of degron read counts” value turn out when FYCNQCGAEFTQKGNLLRHIKL was run?
A: -1.31

Q: For FYCDQCGARFTQKGNLLRHIKL, which “log2 fold change of degron read counts” value is on record?
A: -0.932

Q: How did the “log2 fold change of degron read counts” value turn out when FFCNICGADFTQKGNLLRHIKL was run?
A: -1.09

Q: FYCDICGAKFTQKGNLLRHIKL was tested. Which “log2 fold change of degron read counts” value did it give?
A: -0.51

Q: With FSCDICGASFTQKGNLLRHIKL as the sequence, how does the “log2 fold change of degron read counts” value read?
A: -1.28

Q: Which “log2 fold change of degron read counts” value does the source give for FFCNQCGHMFTQKGNLLRHIKL here?
A: 0.754

Q: With FNCPQCGAFFTQKGNLLRHIKL as the sequence, how does the “log2 fold change of degron read counts” value read?
A: -0.102

Q: FGCPICGRDFTQKGNLLRHIKL was tested. Which “log2 fold change of degron read counts” value did it give?
A: -0.241

Q: How did the “log2 fold change of degron read counts” value turn out when FNCEVCGAAFTQKGNLLRHIKL was run?
A: -2.3

Q: For LGCNQCGFVCTQKGNLLRHIKL, which “log2 fold change of degron read counts” value is on record?
A: 1.05

Q: Which “log2 fold change of degron read counts” value does the source give for FCCDQCGAAFTQKGNLLRHIKL here?
A: -1.61

Q: For FQCEICGAPFTQKGNLLRHIKL, which “log2 fold change of degron read counts” value is on record?
A: -1.03

Q: How did the “log2 fold change of degron read counts” value turn out when FVCDQCGARFTQKGNLLRHIKL was run?
A: -1.67

Q: FQCNVCGAFFTQKGNLLRHIKL was tested. Which “log2 fold change of degron read counts” value did it give?
A: -0.14

Q: Which “log2 fold change of degron read counts” value does the source give for FRCPICGRCFTQKGNLLRHIKL here?
A: -0.0314

Q: FECNQCGATFTQKGNLLRHIKL was tested. Which “log2 fold change of degron read counts” value did it give?
A: -2.17

Q: With LCCEICGFRCTQKGNLLRHIKL as the sequence, how does the “log2 fold change of degron read counts” value read?
A: -0.132

Q: Which “log2 fold change of degron read counts” value does the source give for FSCNQCGHLFTQKGNLLRHIKL here?
A: 0.116

Q: With FRCNQCGRWFTQKGNLLRHIKL as the sequence, how does the “log2 fold change of degron read counts” value read?
A: 1.07

Q: FWCDVCGARFTQKGNLLRHIKL was tested. Which “log2 fold change of degron read counts” value did it give?
A: -1.03

Q: For FFCPICGRMFTQKGNLLRHIKL, which “log2 fold change of degron read counts” value is on record?
A: -0.74

Q: Which “log2 fold change of degron read counts” value does the source give for FHCNVCGAVFTQKGNLLRHIKL here?
A: -0.537

Q: For FECPICGRQFTQKGNLLRHIKL, which “log2 fold change of degron read counts” value is on record?
A: -0.672

Q: For FTCPQCGAYFTQKGNLLRHIKL, which “log2 fold change of degron read counts” value is on record?
A: -0.202

Q: For FQCPICGAHFTQKGNLLRHIKL, which “log2 fold change of degron read counts” value is on record?
A: 0.0569

Q: FECEICGRDFTQKGNLLRHIKL was tested. Which “log2 fold change of degron read counts” value did it give?
A: -1.45

Q: For FDCEICGRNFTQKGNLLRHIKL, which “log2 fold change of degron read counts” value is on record?
A: -1.93

Q: FKCPVCGARFTQKGNLLRHIKL was tested. Which “log2 fold change of degron read counts” value did it give?
A: -0.836

Q: Which “log2 fold change of degron read counts” value does the source give for FCCPICGHDFTQKGNLLRHIKL here?
A: -0.436

Q: FNCNVCGAHFTQKGNLLRHIKL was tested. Which “log2 fold change of degron read counts” value did it give?
A: -0.585

Q: For FGCPQCGAHFTQKGNLLRHIKL, which “log2 fold change of degron read counts” value is on record?
A: -1.39

Q: FECPQCGAQFTQKGNLLRHIKL was tested. Which “log2 fold change of degron read counts” value did it give?
A: -2.03

Q: For FTCNQCGHYFTQKGNLLRHIKL, which “log2 fold change of degron read counts” value is on record?
A: 0.552

Q: How did the “log2 fold change of degron read counts” value turn out when FFCEQCGANFTQKGNLLRHIKL was run?
A: -1.98

Q: With FYCEVCGAKFTQKGNLLRHIKL as the sequence, how does the “log2 fold change of degron read counts” value read?
A: -2.29

Q: With LLCPICGFCCTQKGNLLRHIKL as the sequence, how does the “log2 fold change of degron read counts” value read?
A: 1.67

Q: Which “log2 fold change of degron read counts” value does the source give for FICNICGAEFTQKGNLLRHIKL here?
A: -1.72

Q: FRCDICGACFTQKGNLLRHIKL was tested. Which “log2 fold change of degron read counts” value did it give?
A: -1.33

Q: How did the “log2 fold change of degron read counts” value turn out when FQCSVCGHSFTQKGNLLRHIKL was run?
A: -1.44
